Measured values as given in PubChem BioAssay AID1508623 (National Center for Advancing Translational Sciences (NCATS), 2021).
Screen size: about 48,000 compounds; about 450 (0.94%) were called active. About 19% were inconclusive and are not listed. Calls follow the shape of the dose curve; as a rule, active = well fitted inhibition curve with a large enough effect; inconclusive = small, poorly fitted or top-dose-only effect; inactive = no such curve, though single readings can be large or run the other way. The list shows a part of the results.

Experiment: Primary qHTS for Identification of Small Molecule Inhibitors of Huntingtin Promoter Activity; also: nearly all actives have a fitted effect of over 50% in size
Conditions: HEK293 HTT promoter firefly luciferase reporter (activity 0% = vehicle and -100% = no light), 24 h; series mostly up to 57.5 µM; activity change, negative = inhibition: at the top concentration
Outline: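 HEK293 Fluc reporter, 2,500 cells/well, 24 h pre-culture; cpds up to 57.5 uM final, 24 h 37 degrees C; Dual-Glo, 10 min RT; normalized vehicle = 0%, zero RLU = -100%.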

SMILES	activity change, negative = inhibition
COc1ccc(C)cc1NC(=O)Cn1c(=O)n(Cc2nc(C)no2)c(=O)c2ccccc21	inactive: -0.649%
CCOc1ccccc1NC(=O)C(CC)Sc1nc2ccncc2[nH]1 (stereo not drawn)	inactive: -27.8%
COc1ccc(NCc2cc3cc4c(cc3n(CC(=O)Nc3cc(C)ccc3C)c2=O)OCCO4)cc1	inactive: -6.09%
Cc1nn2c(=O)cc(COC(=O)c3ccccc3NC(=O)C(C)Oc3ccccc3)nc2s1 (stereo not drawn)	inactive: -16.7%
Cc1ccc(-n2c(=O)c3ccc(C(=O)NCc4ccco4)cc3n(Cc3ccccc3C#N)c2=O)cc1	inactive: -1.12%
Cn1c(=O)c2cc(C(=O)NCCCN3CCN(c4ccccc4F)CC3)sc2c2ccccc21	inactive: -4.58%
COc1ccc(NC(=O)c2ccc3c(c2)sc2nc(-c4ccc(OC)cc4)cn23)cc1	inactive: 6.99%
Cc1ccc(NC(=O)Cn2c(=O)n(Cc3ccco3)c(=O)c3ccccc32)c(C)c1	inactive: -7.86%
CCN(CC)c1cc2c(cc1F)c(=O)c(S(=O)(=O)c1cccc(C)c1)cn2C	inactive: -15.9%
Cc1ccc(-c2cn(-c3cccc(Cl)c3)c(S(=O)(=O)CC(=O)Nc3ccccc3F)n2)cc1	inactive: 38.4%
CCOc1ccc(C2CC(=O)N(c3cccc(F)c3)C3=C2C(=O)OC3)cc1 (stereo not drawn)	inactive: 20.5%
Cc1ccc(-n2nc3c(=O)n(CCCC(=O)NCCc4ccccc4Cl)nc(C)c3c2C)cc1	inactive: -16.3%
NC(=O)c1ccccc1NC(=O)C1CCCN(c2ncnc3onc(-c4ccc(F)cc4)c23)C1 (stereo not drawn)	inactive: -8.36%
Cc1ccc(NC(=O)CN2C(=O)CCc3cc(S(=O)(=O)N4CCOCC4)ccc32)cc1N(C)C	inactive: -20.2%
O=C(NC1CCCC1)c1ccc2c(c1)N(Cc1ccc(C(F)(F)F)cc1)C(=O)c1ccccc1S2	inactive: -10%
Cc1ccccc1Cn1c(=O)n(Cc2ccc3c(c2)OCO3)c(=O)c2oc3ccccc3c21	inactive: -5.38%
COCCCNS(=O)(=O)c1cc(-c2onc(C)c2C)ccc1OC	inactive: 5.5%
COc1ccc(N2CCN(C(=O)CSc3n[nH]c(-c4ccccc4)n3)CC2)cc1	inactive: -12%
CN(C)C(=O)c1ccc(NC(=O)Cn2nnnc2-c2ccccc2F)cc1	inactive: -11.5%
COc1ccccc1CNC(=O)Cc1c(C)c2c(cc(C)c3c(C)coc32)oc1=O	inactive: -4.04%
COc1ccc(N(CC(=O)NCc2ccc(F)cc2)S(=O)(=O)c2c(C)noc2C)cc1	inactive: -16.4%
Cc1ccccc1C(=O)N(Cc1ccc(N(C)C)cc1)Cc1ccco1	inactive: -22.2%
COc1ccc(OC)c(-c2nc3c(C#N)c[nH]n3c2NC2CCCCC2)c1	inactive: -16.2%
CCCN(c1ccc(C(C)C)cc1)S(=O)(=O)c1ccc2c(c1)CCN2C(=O)CC	inactive: -32.2%

SMILES	activity change, negative = inhibition
CCc1nonc1NC(=O)c1oc2ccc(F)cc2c1C	inactive: 36.7%
Cc1cccc(OCC(=O)NC(Cc2c[nH]c3ccccc23)C(=O)O)c1C (stereo not drawn)	inactive: -4.79%
COc1ccc(CCNC(=O)C(=O)NCC(c2ccc3c(c2)OCO3)N2CCOCC2)cc1 (stereo not drawn)	inactive: -18%
O=C(Nc1cc(F)ccc1F)N1CCC(CN2CCOCC2)CC1	inactive: -10.8%
Cc1ccc2c(CC(=O)Nc3cccc(Cl)c3C)coc2c1	inactive: -4.77%
Cn1c(=O)n(C/C=C/c2ccccc2)c(=O)c2c1nc1n2CCN1c1ccc(F)cc1	inactive: -5.14%
CCOC(=O)C1=C(C)NC(C)=C(C(=O)OCC)C1c1ccccc1/C=C/C(=O)OC(C)(C)C	inactive: -23.9%
Cc1ccc(-c2nc3cc(NC(=O)c4cc5ccccc5o4)ccc3o2)cc1	inactive: 24.7%
COc1ccc(C(=O)CC2(O)C(=O)Nc3c(C)cccc32)c(OC)c1OC (stereo not drawn)	inactive: -2.14%
CCOc1ccc(-n2c(SCC(=O)Nc3cccc(Cl)c3)nc3c(oc4ccccc43)c2=O)cc1	inactive: -11.9%
CCOc1ccc(-c2cnc(NCc3ccc(C(F)(F)F)cc3)n2C)cc1	inactive: -23.6%
CN1CCN(c2ncc3c(n2)CCN(Cc2cc(Br)cs2)C3)CC1	inactive: -19.3%
O=C(OCC#CCSc1nnc(-c2cccc3ccccc23)o1)c1cc2ccccc2s1	inactive: 23.6%
Cc1cccc(N2CCN(C(=O)c3cc4c(=O)oc5ccccc5c4s3)CC2C)c1 (stereo not drawn)	inactive: -14.2%
COc1ccc(CNS(=O)(=O)c2cc3c(cc2C)n(C)c(=O)c(=O)n3C)cc1	inactive: -2.92%
CC(C)CN(CC(C)C)C(=O)C1CCCN(S(=O)(=O)c2ccc3c(c2)oc(=O)n3C)C1 (stereo not drawn)	inactive: -7.96%
COc1cccc(NC(=O)c2nn(-c3ccc(C)cc3)c(=O)n(C)c2=O)c1	inactive: 5.12%
Cc1cc(C)c2nc(N3CCCC(C(=O)NCc4cccc(Cl)c4)C3)sc2c1 (stereo not drawn)	inactive: -0.294%
COc1ccc(CCC(C)=O)cc1	inactive: -1.97%
Cc1ccc(NS(=O)(=O)c2ccc3c(c2)NC(=O)C(C)C(=O)N3)cc1F (stereo not drawn)	inactive: -28.6%
Cc1ccc(NC(=O)CSc2cc(=O)n(C)c3ccc(Cl)cc23)c(Br)c1	inactive: -11.1%
CC(NC(=O)c1ccc2c(c1)N(Cc1cccc(F)c1)C(=O)c1ccccc1S2)c1ccccc1 (stereo not drawn)	inactive: 0%
CCCCN(C)CCNC(=O)c1c(C)oc2ncnc(N3CCOCC3)c12	inactive: 2.63%
Cc1cccc(NC(=O)Cn2c(=O)n(CCC(C)C)c(=O)c3cccnc32)c1	inactive: -6.17%
